# Test results: the supplement of paper PMC8728848
# The other results are listed elsewhere or left out.
# B1: GNAT (Pseudomonas aeruginosa), Q9HV14 (protein)
# chain: MQLSHRPAETGDLETVAGFPQDRDELFYCYPKAIWPFSVAQLAAAIAERRGSTVAVHDGQVLGFANFYQWQHGDFCALGNMMVAPAARGLGVARYLIGVMENLAREQYKARLMKISCFNANAAGLLLYTQLGYQPRAIAERHDPDGRRVALIQMDKPLEP
# Experiments:
# Test in all cases: glycan array binding signal (z-score within array); higher = stronger binding
# Conditions in all cases: glycan notation: IUPAC condensed, linker removed
# [1] = target: Neu5Ac(a2-3)Gal(b1-3)GlcNAc6S
# Summary of the method: (§1)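 The Consortium for Functional Glycomics database supplied 3228 glycan arrays, of which those lacking an available protein sequence were dropped. The binding signal, a within-array Z-score, was averaged across arrays of the same protein sequence and across linkers. Negative scores can be read as non-binding.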
# [2] = target: Neu5Ac(a2-3)Gal(b1-3)[Fuc(a1-4)]GlcNAc
# Summary of the method: as §1
# [3] = target: Neu5Ac(a2-3)Gal(b1-3)[Fuc(a1-4)]GlcNAc(b1-3)Gal(b1-3)[Fuc(a1-4)]GlcNAc
# Summary of the method: as §1
# [4] = target: Neu5Ac(a2-3)Gal(b1-3)[Fuc(a1-4)]GlcNAc(b1-3)Gal(b1-4)[Fuc(a1-3)]GlcNAc
# Summary of the method: as §1
# [5] = target: Neu5Ac(a2-3)Gal(b1-3)[Neu5Ac(a2-3)Gal(b1-4)]GlcNAc
# Summary of the method: as §1
# [6] = target: Neu5Ac(a2-3)Gal(b1-3)[Neu5Ac(a2-6)]GalNAc
# Summary of the method: as §1
# [7] = target: Neu5Ac(a2-3)Gal(b1-4)Glc
# Summary of the method: as §1
# [8] = target: Neu5Ac(a2-3)Gal(b1-4)GlcNAc
# Summary of the method: as §1
# [9] = target: Neu5Ac(a2-3)Gal(b1-4)GlcNAc(b1-2)Man(a1-3)[GlcNAc(b1-2)Man(b1-4)GlcNAc(b1-2)Man(a1-6)]Man(b1-4)GlcNAc(b1-4)GlcNAc
# Summary of the method: as §1
# [10] = target: Neu5Ac(a2-3)Gal(b1-4)GlcNAc(b1-2)Man(a1-3)[Neu5Ac(a2-6)Gal(b1-4)GlcNAc(b1-2)Man(a1-6)]Man(b1-4)GlcNAc(b1-4)GlcNAc
# Summary of the method: as §1
# [11] = target: Neu5Ac(a2-3)Gal(b1-4)GlcNAc(b1-3)Gal
# Summary of the method: as §1
# [12] = target: Neu5Ac(a2-3)Gal(b1-4)GlcNAc(b1-3)Gal(b1-3)GlcNAc
# Summary of the method: as §1
# [13] = target: Neu5Ac(a2-3)Gal(b1-4)GlcNAc(b1-3)Gal(b1-4)GlcNAc
# Summary of the method: as §1
# [14] = target: Neu5Ac(a2-3)Gal(b1-4)GlcNAc(b1-3)Gal(b1-4)GlcNAc(b1-3)Gal(b1-4)GlcNAc
# Summary of the method: as §1
# [15] = target: Neu5Ac(a2-3)Gal(b1-4)GlcNAc(b1-3)Gal(b1-4)[Fuc(a1-3)]GlcNAc
# Summary of the method: as §1
# [16] = target: Neu5Ac(a2-3)Gal(b1-4)GlcNAc(b1-3)GalNAc
# Summary of the method: as §1
# [17] = target: Neu5Ac(a2-3)Gal(b1-4)GlcNAc(b1-6)[Gal(b1-3)]GalNAc
# Summary of the method: as §1
# [18] = target: Neu5Ac(a2-3)Gal(b1-4)GlcNAc(b1-6)[Neu5Ac(a2-3)Gal(b1-3)]GalNAc
# Summary of the method: as §1
# [19] = target: Neu5Ac(a2-3)Gal(b1-4)GlcNAc6S
# Summary of the method: as §1
# [20] = target: Neu5Ac(a2-3)Gal(b1-4)[Fuc(a1-3)]GlcNAc
# Summary of the method: as §1
# [21] = target: Neu5Ac(a2-3)Gal(b1-4)[Fuc(a1-3)]GlcNAc(b1-3)Gal
# Summary of the method: as §1
# [22] = target: Neu5Ac(a2-3)Gal(b1-4)[Fuc(a1-3)]GlcNAc(b1-3)Gal(b1-4)GlcNAc
# Summary of the method: as §1
# [23] = target: Neu5Ac(a2-3)Gal(b1-4)[Fuc(a1-3)]GlcNAc(b1-3)Gal(b1-4)[Fuc(a1-3)]GlcNAc(b1-3)Gal(b1-4)[Fuc(a1-3)]GlcNAc
# Summary of the method: as §1
# [24] = target: Neu5Ac(a2-3)Gal(b1-4)[Fuc(a1-3)]GlcNAc(b1-3)GalNAc
# Summary of the method: as §1
# [25] = target: Neu5Ac(a2-3)Gal(b1-4)[Fuc(a1-3)]GlcNAc(b1-6)[Gal(b1-3)]GalNAc
# Summary of the method: as §1
# [26] = target: Neu5Ac(a2-3)Gal(b1-4)[Fuc(a1-3)]GlcNAc6S
# Summary of the method: as §1
# [27] = target: Neu5Ac(a2-3)Gal6S(b1-4)GlcNAc
# Summary of the method: as §1
# [28] = target: Neu5Ac(a2-3)Gal6S(b1-4)[Fuc(a1-3)]GlcNAc
# Summary of the method: as §1
# [29] = target: Neu5Ac(a2-3)GalNAc
# Summary of the method: as §1
# [30] = target: Neu5Ac(a2-3)GalNAc(b1-4)GlcNAc
# Summary of the method: as §1
# [31] = target: Neu5Ac(a2-3)[GalNAc(b1-4)]Gal(b1-4)Glc
# Summary of the method: as §1
# [32] = target: Neu5Ac(a2-3)[GalNAc(b1-4)]Gal(b1-4)GlcNAc
# Summary of the method: as §1
# [33] = target: Neu5Ac(a2-3)[GalNAc(b1-4)]Gal(b1-4)GlcNAc(b1-3)GalNAc
# Summary of the method: as §1
# [34] = target: Neu5Ac(a2-3)[Neu5Ac(a2-6)]GalNAc
# Summary of the method: as §1
# [35] = target: Neu5Ac(a2-6)Gal
# Summary of the method: as §1
# [36] = target: Neu5Ac(a2-6)Gal(b1-3)GlcNAc(b1-3)[Gal(b1-4)GlcNAc(b1-6)]Gal(b1-4)Glc
# Summary of the method: as §1
# [37] = target: Neu5Ac(a2-6)Gal(b1-4)Glc
# Summary of the method: as §1
# [38] = target: Neu5Ac(a2-6)Gal(b1-4)GlcNAc
# Summary of the method: as §1
# [39] = target: Neu5Ac(a2-6)Gal(b1-4)GlcNAc(b1-2)Man(a1-3)Man(b1-4)GlcNAc(b1-4)GlcNAc
# Summary of the method: as §1
# [40] = target: Neu5Ac(a2-6)Gal(b1-4)GlcNAc(b1-2)Man(a1-3)[Gal(b1-4)GlcNAc(b1-2)Man(a1-6)]Man(b1-4)GlcNAc(b1-4)GlcNAc
# Summary of the method: as §1
binder,measurement,setting,value
B1,glycan array binding signal (z-score),[1],-0.165
same,glycan array binding signal (z-score),[2],-0.3
same,glycan array binding signal (z-score),[3],-0.252
same,glycan array binding signal (z-score),[4],-0.219
same,glycan array binding signal (z-score),[5],-0.37
same,glycan array binding signal (z-score),[6],-0.082
same,glycan array binding signal (z-score),[7],-0.193
same,glycan array binding signal (z-score),[8],-0.448
same,glycan array binding signal (z-score),[9],-0.392
same,glycan array binding signal (z-score),[10],-0.292
same,glycan array binding signal (z-score),[11],-0.403
same,glycan array binding signal (z-score),[12],-0.457
same,glycan array binding signal (z-score),[13],-0.349
same,glycan array binding signal (z-score),[14],-0.394
same,glycan array binding signal (z-score),[15],-0.235
same,glycan array binding signal (z-score),[16],-0.374
same,glycan array binding signal (z-score),[17],-0.355
same,glycan array binding signal (z-score),[18],-0.097
same,glycan array binding signal (z-score),[19],-0.348
same,glycan array binding signal (z-score),[20],-0.269
same,glycan array binding signal (z-score),[21],-0.379
same,glycan array binding signal (z-score),[22],1.69
same,glycan array binding signal (z-score),[23],-0.195
same,glycan array binding signal (z-score),[24],2.77
same,glycan array binding signal (z-score),[25],5.03
same,glycan array binding signal (z-score),[26],-0.383
same,glycan array binding signal (z-score),[27],-0.468
same,glycan array binding signal (z-score),[28],-0.485
same,glycan array binding signal (z-score),[29],-0.47
same,glycan array binding signal (z-score),[30],-0.348
same,glycan array binding signal (z-score),[31],-0.393
same,glycan array binding signal (z-score),[32],-0.409
same,glycan array binding signal (z-score),[33],0.442
same,glycan array binding signal (z-score),[34],-0.405
same,glycan array binding signal (z-score),[35],-0.463
same,glycan array binding signal (z-score),[36],1.03
same,glycan array binding signal (z-score),[37],-0.431
same,glycan array binding signal (z-score),[38],-0.351
same,glycan array binding signal (z-score),[39],-0.341
same,glycan array binding signal (z-score),[40],1.05
